# Laboratory results: paper PMC12136788
# The other results are listed elsewhere or left out.
# B1: ENSG00000136010:stop:overlap|stop_codon|ENSG00000136010|stop_codon|NA|stop_codon (ssRNA)
# RNA: GGGAGUUCUACAGUCCGACGAUCACUUAGGUGAGGAAGCUCUAAAUGAAUAUCUCAAAACCAAGACGGUGACACUGGAAUAUUAGAGCAACACCAUCAUCAGGAAAGCCUUGACAGACAGCCCUUUACAACUCUGGACACACUCAACAGAGGAUUGAGCAUCA
# B2: chr9:91409354:91409467:-|CDS|ENSG00000165030|unk|FALSE|unique (ssRNA)
# RNA: GGGAGUUCUACAGUCCGACGAUCAAUGAAAGACAGUGGCUACAAAGUUUCUGACCCAGAGAACUUGUAUUUGAAGCAGGGGAUAGCAAACUUAUCUGCAGAGGUUGUCUCACUCAAGAGACUUAUAGCCACACAACCAAUCUCCAACAGAGGAUUGAGCAUCA
# B3: chr2:10440579:10440691:-|3pUTR|ENSG00000115758|unk|total|mutant (ssRNA)
# RNA: GGGAGUUCUACAGUCCGACGAUCUAACUGCAAGUUCCGCUUGAAUUAAGGGAUUUGGGGGGACCAUGUAACUUAAUUACUGCCCGUUUUGAAAUGUCUUUGUAAGAGCCGGGUCGCCAUGAUGCAGCCAUAUGGAAGACCCGGCAACAGAGGAUUGAGCAUCA
# B4: chr12:118033712:118033825:-|3pUTR|ENSG00000176871|unk|FALSE|unique (ssRNA)
# RNA: GGGAGUUCUACAGUCCGACGAUCCCUCCGCUGGGAACGAUGGCUUCUGCCUAGUACCUAUCCUUGUGUUUCUGAUGCAGUGGUAGCAUUGGUUCAAGUUCUCUCCUGCUGUGGUCAGAGUUGCUUCGAUGUUGGCCAAGUGCUCAACAGAGGAUUGAGCAUCA
# B5: chr7:2728618:2728646:-|3pUTR|ENSG00000146535|msi1_unk|FALSE|overlapping (ssRNA)
# RNA: GGGAGUUCUACAGUCCGACGAUCUUUAAUUUCACUGUUAAUCCUUAUUGUCUUUUUUAUUAAGAUGUUGGAAAAGCAGGAGGUAGUUGUGCCUCAAUUAUUGCAAAAAUGUAACAAUAAAGUUCCUCAAAAUAAGAUCUGUUCCAACAGAGGAUUGAGCAUCA
# B6: chr21:25881051:25881209:-|3pUTR|ENSG00000142192|msi1_unk|FALSE|overlapping (ssRNA)
# RNA: GGGAGUUCUACAGUCCGACGAUCUUUUUUUUCCAUGACUGCAUUUUACUGUACAGAUUGCUGCUUCUGCUAUAUUUGUGAUAUAGGAAUUAAGAGGAUACACACGUUUGUUUCUUCGUGCCUGUUUUAUGUGCACACAUUAGGCAACAGAGGAUUGAGCAUCA
# B7: chr1:94517210:94517403:+|3pUTR|ENSG00000117528|unk|total|mutant (ssRNA)
# RNA: GGGAGUUCUACAGUCCGACGAUCAACAAAUUAACCCGAUACAGAAUAAUGGAGAACAAGUUGUUAAAACAUUUAAUAUUAUACCGGAUAUUGCUAAUUGUGUAUAUGUUGGUUUAAUUAAUAAUAUGUACUAAGAAUGUCCUUCAACAGAGGAUUGAGCAUCA
# B8: chr19:51872534:51873706:-|CDS|ENSG00000161551|control|control|control (ssRNA)
# RNA: GGGAGUUCUACAGUCCGACGAUCCCUAGUGGGCAGAAAUGUAGUGAUUGUGGAACAACCUUUUCCAAGAAAUCAAGCCUUUGUAGUUAAUCAGGAAUUUGAACAGAGAAUAAGCCUCACAAAUGAAGUGAAUGUGGCCCCAUCCAACAGAGGAUUGAGCAUCA
# B9: chr10:128098031:128098192:-|3pUTR|ENSG00000148773|msi1|total|mutant (ssRNA)
# RNA: GGGAGUUCUACAGUCCGACGAUCCAUCUUCAUUUACUUUCCACUUUGCCCCCUGUCCUCUCUGUGUUCCCCAAAUCAGAGAACCGCCCGCCAUCCCCCAGGUCACCUGUCUGGAUUCCUCCCCAUUCACCCACCUUGCCAGGUCAACAGAGGAUUGAGCAUCA
# B10: chr3:149172415:149172516:+|3pUTR|ENSG00000163755|unk|total|mutant (ssRNA)
# RNA: GGGAGUUCUACAGUCCGACGAUCUUACCGUGCCGUGGUAACUAUUCACUUCUUAAUUUAUGACCUCAAUCAAUUUAAUUGUCCCGAAUGUAAAAAGUCUUUAAGACAUAAGAAUUCCUCAAAGAAGCCAUACAUUUUUUAAGGCAACAGAGGAUUGAGCAUCA
# B11: chr13:25097967:25098071:+|CDS|ENSG00000151846|unk|FALSE|unique (ssRNA)
# RNA: GGGAGUUCUACAGUCCGACGAUCAGAACUUCUUUAUAUGCUCGAGUCUCCAGAGUCACUCCGUUCUAAGGUUGAUGAAGCUGUAGCUGUACUACAAGCCCACCAAGCUAAAGAGGCUACCCAGAAAGCAGUUAACAGUGCUACCAACAGAGGAUUGAGCAUCA
# B12: chr1:21603657:21603912:-|CDS|ENSG00000076864|control|control|control (ssRNA)
# RNA: GGGAGUUCUACAGUCCGACGAUCAUUGCUUAUUCCUGGGAAAAGUGCGAGUAGAUUCGGACGCCGGGGCAGUGCCAUAGGCAUAGGAACCGUGGAAGAGGUUGUCGUCCGCGGGGCCGCCGGCUCUGGAGGCUGCCUGCACGCCAACAGAGGAUUGAGCAUCA
# B13: chr12:71139710:71139848:-|CDS|ENSG00000127324|control|control|control (ssRNA)
# RNA: GGGAGUUCUACAGUCCGACGAUCUUUUGGUUCUGAAGAUGUAGGCUCUAGCUCCUACGUUGCUGUGGACAUAUUGAUUGCUGUAGGUGCCAUCAUCAUGAUUCUGGGCUUCCUGGGAUGCUGCGGUGCUAUAAAAGAAAGUCGCAACAGAGGAUUGAGCAUCA
# B14: ENSG00000142669:stop:overlap|stop_codon|ENSG00000142669|stop_codon|NA|stop_codon (ssRNA)
# RNA: GGGAGUUCUACAGUCCGACGAUCAGUACUGUGGGGUAUGGGCUGGGGGACGGGGGGGUGGGGGGAGUGUUGGAAGAGGACUCUAGCCAGGGUCAUAUCUGCCACAAAGCACUUGGGCCCCCUGCAUUCAGGUGACCACCCCUCCAACAGAGGAUUGAGCAUCA
# B15: ENSG00000188706:stop:overlap|stop_codon|ENSG00000188706|stop_codon|NA|stop_codon (ssRNA)
# RNA: GGGAGUUCUACAGUCCGACGAUCAAGAGAUGCCACCUCCAGAGCCCCCAGAGCCACCACAGGAGGCAGCUGAAGCUGAGAAGUAGCCUAUCUAUGGAAGAGACUUUUGUUUGUGUUUAAUUAGGGCUAUGAGAGAUUUCAGGUCAACAGAGGAUUGAGCAUCA
# B16: chr5:36975901:36976008:+|CDS|ENSG00000164190|unk|total|mutant (ssRNA)
# RNA: GGGAGUUCUACAGUCCGACGAUCAUGAAAUCCGGCAAGGAUGAAAAAGAGCAGAGUGAGAAAGCGGCAAUGUAUGAUAUAAUCCGUUCUCCAUCCAAGGACUCUACUAAACUUACAUUAAGACUUUCUCGUGUAAGGUCUUCACAACAGAGGAUUGAGCAUCA
# B17: chr22:21763623:21763656:-|3pUTR|ENSG00000100030|msi1_unk|FALSE|overlapping (ssRNA)
# RNA: GGGAGUUCUACAGUCCGACGAUCGUGCUUCCGUCUCCGGAAUCCUUGGGGAGCACUUGUCCACGUCUUUUCUCAUAUCAUGGUAGUCACUAACAUAUAUAAGGUAUGUGCUAUUGGCCCAGCUUUUAGAAAAUGCAGUCAUUUCAACAGAGGAUUGAGCAUCA
# B18: chr17:78853230:78853302:-|3pUTR|ENSG00000035862|msi1_unk|FALSE|overlapping (ssRNA)
# RNA: GGGAGUUCUACAGUCCGACGAUCCUCUUCUCCUAUUUUCAUCCUGCAAGCAACUCAAAAUAUUUAAAAUAAAGUUUACAUUGUAGUUAUUUUCAAAUCUUUGCUUGAUAAGUAUUAAGAAAUAUUGGACUUGCUGCCGUAAUUCAACAGAGGAUUGAGCAUCA
# B19: chr5:137752703:137752764:-|3pUTR|ENSG00000177733|msi1_unk|total|mutant (ssRNA)
# RNA: GGGAGUUCUACAGUCCGACGAUCGGGAGGGAGUGAACUUGCUGAUUCUGCCGCAAAACCUGGGUGGGGGUUGGGGUGGGGGGCCGUUUACUUUGUUGUAAGGACUUGAUAACCUGGCUACAGCGUUUUCUAUGAAAUCUACUUCAACAGAGGAUUGAGCAUCA
# B20: chr22:29528936:29529239:-|three_prime_utr|ENSG00000100296|control|control|control (ssRNA)
# RNA: GGGAGUUCUACAGUCCGACGAUCGAUUCGUCCCCCAGGGACACCAGGUCACCAUCCAAGGGCAGUCCUGGUCUUUGGAGAACUAGCUGGACUAGUUCUGUGUAGCAGGAAGCUUGACUUGAAUGUCUUAGCACCCUGGAGUAGCAACAGAGGAUUGAGCAUCA
# B21: chr6:52502144:52502313:-|3pUTR|ENSG00000065308|msi1|FALSE|unique (ssRNA)
# RNA: GGGAGUUCUACAGUCCGACGAUCUCAGCCAUUCACAAGCAUUCAAAACCAAACCAAACAGCAGUUCAUAUACCUGCCUGAGAUAGGCUGGUCCUCACCUCCAGAGCCAGCCAGCCCCGUCAGGGGCCAAACUUACUACCUUGACAACAGAGGAUUGAGCAUCA
# B22: ENSG00000198589:be:win_8301|CDS|ENSG00000198589|bound_else_gene|NA|bound_elsewhere_windowed (ssRNA)
# RNA: GGGAGUUCUACAGUCCGACGAUCAGAUGAUAACAUAAGAGCCAUCCAGCUGAGCCGAGAUGGGCAGUACCUGCUCACAGGAGGAGACAGAGGAGUGGUCGUGGUCCGGCAGGUGUCGGACCUCAAGCAGCUCUUUGCCUAUCCCAACAGAGGAUUGAGCAUCA
# Target: T1, UNK ZnF1-6 (called full-length) (human, UniProt Q9C0B0 30-357)
# T1 sequence: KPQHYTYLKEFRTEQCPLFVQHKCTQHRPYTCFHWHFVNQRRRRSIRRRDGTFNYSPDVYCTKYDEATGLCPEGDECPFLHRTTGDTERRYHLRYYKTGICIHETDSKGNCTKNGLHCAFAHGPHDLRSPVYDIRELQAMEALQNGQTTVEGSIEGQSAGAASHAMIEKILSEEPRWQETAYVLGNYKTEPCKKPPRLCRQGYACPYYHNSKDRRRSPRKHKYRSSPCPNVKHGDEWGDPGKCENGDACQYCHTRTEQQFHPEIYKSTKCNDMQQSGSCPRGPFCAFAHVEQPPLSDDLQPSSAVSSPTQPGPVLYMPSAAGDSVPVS
# Experiment: nsRBNS (natural sequence RNA bind-n-seq); RBNS binding buffer (assumed for nsRBNS): 25 mM Tris pH 7.5, 150 mM KCl, 3 mM MgCl2, 0.01% Triton X-100, 500 ug/ml BSA, 20 U/ml SUPERase-In, 4 C; UNK is unkempt and MSI1 is Musashi-1; names of the RNAs are library labels; protein concentration not given here; high values mean tight binding
row,Binder,binding signal
1,B1,0.469 enrichment R
2,B2,0.819 enrichment R
3,B3,0.577 enrichment R
4,B4,0.472 enrichment R
5,B5,0.624 enrichment R
6,B6,1.05 enrichment R
7,B7,0.447 enrichment R
8,B8,0.639 enrichment R
9,B9,1.05 enrichment R
10,B10,0.773 enrichment R
11,B11,0.494 enrichment R
12,B12,0.611 enrichment R
13,B13,0.474 enrichment R
14,B14,1.02 enrichment R
15,B15,0.965 enrichment R
16,B16,0.371 enrichment R
17,B17,0.483 enrichment R
18,B18,1.71 enrichment R
19,B19,0.973 enrichment R
20,B20,1.08 enrichment R
21,B21,0.618 enrichment R
22,B22,0.579 enrichment R
